Scores with a large standard error are left out. Two further conditions of the source, in which the scores hardly spread, are not listed. Read del as a deletion of the residues named and ins as an insertion between two positions. For some assays here: The concentration of ogerin is not given here.
B1: GPR68, Q15743 (parent)
chain: MGNITADNSSMSCTIDHTIHQTLAPVVYVTVLVVGFPANCLSLYFGYLQIKARNELGVYLCNLTVADLFYICSLPFWLQYVLQHDNWSHGDLSCQVCGILLYENIYISVGFLCCISVDRYLAVAHPFRFHQFRTLKAAVGVSVVIWAKELLTSIYFLMHEEVIEDENQHRVCFEHYPIQAWQRAINYYRFLVGFLFPICLLLASYQGILRAVRRSHGTQKSRKDQIQRLVLSTVVIFLACFLPYHVLLLVRSVWEASCDFAKGVFNAYHFSLLLTSFNCVADPVLYCFVSETTHRDLARLRGACLAFLTCSRTGRAREAYPLGAPEASGKSGAQGEEPELLTKLHPAFQTPNSPGSGGFPTGRLA

Legend:
[1] = variants of: B1; assay: cAMP reporter score (Enrich2 score, wild type = 0); higher = more signal; HEK293T, FACS bins
[2] = variants of: B1; assay: surface expression score (Enrich2 score, wild type = 0); higher = more signal; HEK293T, FACS bins

Variant	cAMP reporter score ([1]; pH 5.5)	cAMP reporter score ([1]; pH 6, modulator: ogerin)	cAMP reporter score ([1]; pH 6.5, modulator: ogerin)	surface expression score [2]	cAMP reporter score ([1]; pH 6)
MGNITADNSSMSCTIDHTIHQTLAPVVYVTVLVVGFPANCLSLYFGYLQIKARNELGVYLCNLTVADLFYICSLPFWLQYVLQHDNWSHGDLSCQVCGILLYENIYISVGFLCCISVDRYLAVAHPFRFHQFRTLKAAVGVSVVIWAKRLLTSIYFLMHEEVIEDENQHRVCFEHYPIQAWQRAINYYRFLVGFLFPICLLLASYQGILRAVRRSHGTQKSRKDQIQRLVLSTVVIFLACFLPYHVLLLVRSVWEASCDFAKGVFNAYHFSLLLTSFNCVADPVLYCFVSETTHRDLARLRGACLAFLTCSRTGRAREAYPLGAPEASGKSGAQGEEPELLTKLHPAFQTPNSPGSGGFPTGRLA [E149R]	0.86	-1.7	-1.81	-1.46	–
MGNITADNSSMSCTIDHTIHQTLAPVVYVTVLVVGFPANCLSLYFGYLQIKARNELGVYLCNLTVADLFYICSLPFWLQYVLQHDNWSHGDLSCQVCGILLYENIYISVGFLCCISVDRYLAVAHPFRFHQFRTLKAAVGVSVVIWAKSLLTSIYFLMHEEVIEDENQHRVCFEHYPIQAWQRAINYYRFLVGFLFPICLLLASYQGILRAVRRSHGTQKSRKDQIQRLVLSTVVIFLACFLPYHVLLLVRSVWEASCDFAKGVFNAYHFSLLLTSFNCVADPVLYCFVSETTHRDLARLRGACLAFLTCSRTGRAREAYPLGAPEASGKSGAQGEEPELLTKLHPAFQTPNSPGSGGFPTGRLA [E149S]	-1.88	-0.653	-1.99	-3.25	-1.61
MGNITADNSSMSCTIDHTIHQTLAPVVYVTVLVVGFPANCLSLYFGYLQIKARNELGVYLCNLTVADLFYICSLPFWLQYVLQHDNWSHGDLSCQVCGILLYENIYISVGFLCCISVDRYLAVAHPFRFHQFRTLKAAVGVSVVIWAKVLLTSIYFLMHEEVIEDENQHRVCFEHYPIQAWQRAINYYRFLVGFLFPICLLLASYQGILRAVRRSHGTQKSRKDQIQRLVLSTVVIFLACFLPYHVLLLVRSVWEASCDFAKGVFNAYHFSLLLTSFNCVADPVLYCFVSETTHRDLARLRGACLAFLTCSRTGRAREAYPLGAPEASGKSGAQGEEPELLTKLHPAFQTPNSPGSGGFPTGRLA [E149V]	1.34	0.406	0.571	1.04	3.65
MGNITADNSSMSCTIDHTIHQTLAPVVYVTVLVVGFPANCLSLYFGYLQIKARNELGVYLCNLTVADLFYICSLPFWLQYVLQHDNWSHGDLSCQVCGILLYENIYISVGFLCCISVDRYLAVAHPFRFHQFRTLKAAVGVSVVIWAKQLLTSIYFLMHEEVIEDENQHRVCFEHYPIQAWQRAINYYRFLVGFLFPICLLLASYQGILRAVRRSHGTQKSRKDQIQRLVLSTVVIFLACFLPYHVLLLVRSVWEASCDFAKGVFNAYHFSLLLTSFNCVADPVLYCFVSETTHRDLARLRGACLAFLTCSRTGRAREAYPLGAPEASGKSGAQGEEPELLTKLHPAFQTPNSPGSGGFPTGRLA [E149Q]	-0.408	-1.49	-2.41	–	–

From the GPR68 mutational scans of Howard et al. (2025)
